Data from paper PMC12948427 (The Journal of Clinical Investigation, 2025).
These are yes or no findings as the source states them, for the method shown. For some assays here: Binding seen in cells or lysates may run through a third protein. Some entries that bind do so weakly or less than the wild type.

Legend:
[1] = target: SARS-CoV-2 membrane (M) protein, transiently expressed (SARS-CoV-2) (UniProt P0DTC5); test: co-IP; HGS truncations immunoprecipitated by M protein (Supplemental Figure 6C); cells and tags not shown
[2] = target: hepatocyte growth factor-regulated tyrosine kinase substrate (HGS) (UniProt O14964); test: co-IP
[3] = target: SARS-CoV-2 envelope small membrane (E) protein, transiently expressed (SARS-CoV-2) (UniProt P0DTC4); test: co-IP
[4] = target: SARS-CoV-2 membrane (M) protein, transiently expressed (SARS-CoV-2) (UniProt P0DTC5); test: co-IP
[5] = target: purified FLAG-M protein (SARS-CoV-2 M) (SARS-CoV-2) (UniProt P0DTC5); test: pull-down; both purified

Question: How did the binding [1] turn out when “HGS 1-290 (from UniProt O14964 1-290) (domain or fragment)” was run?
Answer: Its binding is “binds”.

Question: With “HGS 1-390 (co-IP construct) (from UniProt O14964 1-390) (domain or fragment)” as the substance, how does the binding [1] read?
Answer: Its binding is “binds”.

Question: With “HGS 1-509 (from UniProt O14964 1-509) (domain or fragment)” as the substance, how does the binding [1] read?
Answer: The binding was “binds”.

Question: How did the binding [2] turn out when “SARS-CoV-2 envelope small membrane (E) protein, transiently expressed (from UniProt P0DTC4 1-75)” was run?
Answer: Its binding is “no binding”.

Question: How did the binding [2] turn out when “SARS-CoV-2 membrane (M) protein, transiently expressed (from UniProt P0DTC5 1-222)” was run?
Answer: The binding was “binds”.

Question: How did the binding [3] turn out when “hepatocyte growth factor-regulated tyrosine kinase substrate (HGS) (from UniProt O14964 1-777)” was run?
Answer: The binding was “no binding”.

Question: What about the binding [4] of the same substance?
Answer: Its binding is “binds”.

Question: With “purified HIS-HGS protein (from UniProt O14964 1-777)” as the substance, how does the binding [5] read?
Answer: Its binding is “binds”.
